The whole screen tested about 350,000 compounds, of which about 260 (0.074%) were called active. Inconclusive means that the source gave no clear call. Such entries were picked first, then a sample of the others. The call rests on the fitted dose curve; in most records, active means well fitted inhibition curve with a large enough effect; inconclusive means small, poorly fitted or top-dose-only effect; inactive means no such curve, though single readings can be large or run the other way. Where the call is inconclusive, the potency comes from a doubtful curve fit.
The molecules below were run against Ferritin light chain (Equus caballus) (UniProt P02791) (assay: qHTS Assay for Identification of Novel General Anesthetics). Settings: apoferritin/1-aminoanthracene competitive binding, fluorescence; series mostly up to 77.5 µM.
Sequence of UniProt P02791 (P02791 whole entry, looked up): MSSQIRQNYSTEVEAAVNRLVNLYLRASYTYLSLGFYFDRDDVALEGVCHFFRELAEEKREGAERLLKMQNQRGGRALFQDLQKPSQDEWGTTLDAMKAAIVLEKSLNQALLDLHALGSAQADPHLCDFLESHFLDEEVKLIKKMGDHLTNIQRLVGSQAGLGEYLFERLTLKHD
Summary of the method: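 In PBS, apoferritin at 10 uM is loaded with 1-AMA from a 50% saturated solution. After 10 min of compound exposure at ambient temperature, reduced 535 nm fluorescence indicates probe displacement.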
In the case of `Cc1cccc(Cn2ncc(Cl)c(Cl)c2=O)c1`, the Potency is reported as inconclusive: 20 µM [inhibitor, partial curve].
In the case of `COc1cc(OC)cc(-c2nc3nc(C)c(CCC(=O)Nc4ccc(Cl)cc4)c(C)n3n2)c1`, the Potency is reported as “inactive”.
In the case of `Oc1ccc2ccccc2c1N=Nc1nccs1`, the Potency is reported as inconclusive: 56.2 µM [inhibitor, single point].
`Cc1ccc(NC(=O)CCC(=O)NNS(=O)(=O)c2ccccc2)c(C)c1` was tested, and the Potency was inconclusive: 28.2 µM [inhibitor, single point].
`COc1cc2oc(=O)cc(-c3ccc(-c4ccc(CO)cc4)cc3)c2c(OC)c1OC` was tested, and the Potency was inconclusive: 39.8 µM [inhibitor, partial curve].
`Cc1ccc(C(=O)NCCNc2ccc(Cl)cc2[N+](=O)[O-])o1` was tested, and the Potency was inconclusive: 44.7 µM [inhibitor, partial curve].
In the case of `CS(=O)(=O)N1CCN=C1SCc1ccc(Br)cc1`, the Potency is reported as inconclusive: 25.1 µM [inhibitor, partial curve].
For `CCOC(=O)CSc1ccc(S(=O)(=O)N(C)C2CCCCC2)cc1[N+](=O)[O-]`, the Potency was inconclusive: 35.5 µM [inhibitor, partial curve].
With `COc1cc(/C=N/O)cc(Br)c1OCC(=O)NCc1ccccc1` the Potency was inconclusive: 31.6 µM [inhibitor, partial curve].
With `Clc1cccc(N2CCN(c3ncnc4c3nc3n4CCCCC3)CC2)c1` the Potency was “inactive”.
With `Cc1c(Br)c([N+](=O)[O-])nn1CC(=O)NCCc1c[nH]c2ccccc12` the Potency was inconclusive: 35.5 µM [inhibitor, single point].
`O=C(CCc1nc2ccccc2c(=O)[nH]1)Nc1ccc(Cl)c(Cl)c1` was tested, and the Potency was inconclusive: 39.8 µM [inhibitor, single point].
In the case of `CC1CC(C)CN(C(=O)c2cc3cc(Br)cc(Br)c3o2)C1` (stereo not drawn), the Potency is reported as inconclusive: 31.6 µM [inhibitor, partial curve].
In the case of `O=C(Nc1cnn(Cc2ccc(Cl)c(Cl)c2)c1)C12CC3CC(CC(C3)C1)C2`, the Potency is reported as inconclusive: 31.6 µM [inhibitor, single point].
`COc1cccc(CNC(=O)CCCNC(=O)c2ccc(Cl)cc2)c1` was tested, and the Potency was “inactive”.
For `COc1ccccc1C(=O)NC(=S)N1CCCc2ccccc21`, the Potency was inconclusive: 35.5 µM [inhibitor, partial curve].
For `Cc1sc(NC(=O)CSc2nnc(-c3ccc(F)cc3)o2)c(C#N)c1C`, the Potency was inconclusive: 25.1 µM [inhibitor, single point].
For `CC1=CC(C)(C)N2C(=O)C3(NCCc4c3[nH]c3ccccc43)c3cccc1c32` (stereo not drawn), the Potency was inconclusive: 12.6 µM [inhibitor, partial curve].
`COc1ccccc1[C@@H]1C(c2ccccc2)=NN(c2ccccc2)[C@H]1C(=O)N1CCOC1=O` was tested, and the Potency was “inactive”.
For `Cc1cn2c(=O)cc(COC(=O)c3cccc(NC(=O)COc4ccccc4Cl)c3)nc2s1`, the Potency was “inactive”.
With `CC1=CC(C)(C)Nc2ccc(OC(=O)CCN3C(=O)c4ccccc4C3=O)cc21` the Potency was inconclusive: 50.1 µM [inhibitor, single point].
`Cc1ccc(CNC(=O)CSCc2cccc(F)c2)cc1` was tested, and the Potency was inconclusive: 25.1 µM [inhibitor, partial curve].
`CC(C)Cn1c(O)c(/C=C2\C=NN=C2c2ccccc2)sc1=S` was tested, and the Potency was inconclusive: 44.7 µM [inhibitor, single point].
With `Cc1ccc(C)c(-c2ccc(=O)n(Cc3cccc(Br)c3)n2)c1` the Potency was inconclusive: 35.5 µM [inhibitor, partial curve].
With `Cc1ccc(Cl)cc1N1CCN(C(=O)c2cnc(N3CCOCC3)c3ccccc23)CC1` the Potency was “inactive”.
`CC(=O)c1ccc(C(C)(C)c2ccc(C(C)=O)s2)s1` was tested, and the Potency was inconclusive: 25.1 µM [inhibitor, partial curve].
`CCOC(=O)C1CCCN(c2nc(C)nc3c2oc2ccccc23)C1` (stereo not drawn) was tested, and the Potency was inconclusive: 35.5 µM [inhibitor, single point].
`COCCNC(=O)/C(C#N)=C/c1cc(C)n(-c2ccc(C)cc2)c1C` was tested, and the Potency was inconclusive: 35.5 µM [inhibitor, single point].
`CCOC(=O)C1=C([Si](C)(C)C)c2ccccc2N(S(=O)(=O)C(F)(F)F)C1C(=O)OCC` (stereo not drawn) was tested, and the Potency was inconclusive: 17.8 µM [inhibitor, partial curve].
With `Cc1ccc(NC(=O)CS(=O)CC(=O)Nc2cccc(C)c2C)cc1F` (stereo not drawn) the Potency was inconclusive: 5.01 µM [inhibitor, full curve].
With `O=c1[nH]c(C2CCCN(S(=O)(=O)c3cccc(F)c3)C2)nc2c1nnn2Cc1ccccc1` (stereo not drawn) the Potency was inconclusive: 4.47 µM [inhibitor, partial curve].
`CC1CCN(C(=O)COC(=O)c2ccccc2NC(=O)c2ccco2)CC1` was tested, and the Potency was inconclusive: 25.1 µM [inhibitor, partial curve].
`CC1CCCCN1C(=S)NCCc1ccccc1` (stereo not drawn) was tested, and the Potency was inconclusive: 35.5 µM [inhibitor, partial curve].
For `CC/C(=C/c1sc2ccc(C)cc2[n+]1CCO)SC`, the Potency was “inactive”.
`COc1ccc(S(=O)(=O)NCCOc2ccccc2)cc1-n1cnnn1` was tested, and the Potency was “inactive”.
`Cc1ccccc1CN1CCN(C(=O)c2ccco2)CC1` was tested, and the Potency was “inactive”.
In the case of `O=C(CCSc1nc(-c2ccco2)cc(C(F)(F)F)n1)Nc1cccc(O)c1`, the Potency is reported as inconclusive: 12.6 µM [inhibitor, partial curve].
With `Cc1ccnc(NC(=O)c2cccc(NS(=O)(=O)c3ccccc3C)c2)c1` the Potency was inconclusive: 15.8 µM [inhibitor, partial curve].
`Fc1ccc(-n2ncc3c(NCCCN4CCOCC4)ncnc32)cc1` was tested, and the Potency was “inactive”.
With `COc1ccc(C(=O)C(OC(=O)c2ccccc2)c2ccccc2)cc1` (stereo not drawn) the Potency was inconclusive: 28.2 µM [inhibitor, partial curve].
For `COc1ccc(N2CCN(C(=O)c3cccc(N4C(=O)C5CC=CC(C)C5C4=O)c3)CC2)cc1` (stereo not drawn), the Potency was inconclusive: 31.6 µM [inhibitor, partial curve].
For `COc1ccc(NCC(O)COc2ccc(C(C)(C)C)cc2)cc1` (stereo not drawn), the Potency was inconclusive: 20 µM [inhibitor, partial curve].
`Cc1nn2c(c1-c1ccccc1)N=C(c1ccco1)CC2c1ccccc1` (stereo not drawn) was tested, and the Potency was inconclusive: 15.8 µM [inhibitor, partial curve].
In the case of `CCO[C@H]1O[C@@H]([C@H](COCc2ccccc2)OCc2ccccc2)[C@@H](OCc2ccccc2)[C@H]1O`, the Potency is reported as “inactive”.
With `Cn1c(=O)oc2cc(S(=O)(=O)NCCc3ccccc3)ccc21` the Potency was inconclusive: 8.91 µM [inhibitor, partial curve].
In the case of `COc1cc(-c2nnc(SCCOc3ccc(Cl)cc3C)o2)cc(OC)c1OC`, the Potency is reported as “inactive”.
For `Cn1ccnc1SCC(=O)n1c2c(c3ccccc31)CCCC2`, the Potency was inconclusive: 56.2 µM [inhibitor, single point].
With `Cc1ccc(OCC(=O)NCCC2=CCCCC2)cc1` the Potency was inconclusive: 15.8 µM [inhibitor, partial curve].
For `CC(C)CC(=O)Nc1cc2c3c(c1)CCN3C(=O)CC2`, the Potency was “inactive”.
For `O=C(Nc1ccon1)c1cccc(S(=O)(=O)N2CCCCCC2)c1`, the Potency was inconclusive: 50.1 µM [inhibitor, single point].
In the case of `CCCCNC(=O)c1cccc2c(=O)c(C)c(-c3ccccc3)oc12`, the Potency is reported as “inactive”.
`Cc1ccc(-c2csc3nc4cc(C(=O)NC5CCC(O)CC5)ccc4c(=O)n23)cc1` (stereo not drawn) was tested, and the Potency was “inactive”.
With `CC(C)=CCCC1=CCC(/C(C)=N/NC(N)=O)CC1` (stereo not drawn) the Potency was inconclusive: 35.5 µM [inhibitor, partial curve].
With `Cc1ccc2c(c1)-c1nc(-c3ccc(Cl)cc3)cc(-c3coc4ccccc4c3=O)c1CO2` the Potency was “inactive”.
`O=[N+]([O-])c1cc(S(=O)(=O)Nc2cccc(C(F)(F)F)c2)ccc1-n1nnc2ccccc21` was tested, and the Potency was inconclusive: 44.7 µM [inhibitor, partial curve].
In the case of `COc1ccccc1N1CCN(C(=O)c2sc3ncnc(N4CCN(c5ccccn5)CC4)c3c2C)CC1`, the Potency is reported as “inactive”.
In the case of `CCOC(=O)C1=C(C)N=C2SC(C(=O)OC)=CC(=O)N2C1c1cccc(OC)c1` (stereo not drawn), the Potency is reported as inconclusive: 25.1 µM [inhibitor, partial curve].
For `Clc1ccc(CSCCc2ccncc2)cc1`, the Potency was inconclusive: 28.2 µM [inhibitor, partial curve].
With `CCCCNC(=S)NNC(=O)c1csc2c1CCC(C)C2` (stereo not drawn) the Potency was inconclusive: 28.2 µM [inhibitor, partial curve].
With `CC1CCCCN1C(=O)c1ccc(Br)o1` (stereo not drawn) the Potency was inconclusive: 28.2 µM [inhibitor, single point].
`CC(C)(C)SCCNS(=O)(=O)c1ccccc1` was tested, and the Potency was inconclusive: 44.7 µM [inhibitor, partial curve].
For `COc1ccc(C2=NS(=O)(=O)N(C)C(C(=O)Nc3cc(C)ccc3O)=C2)cc1OC`, the Potency was inconclusive: 39.8 µM [inhibitor, partial curve].
With `CCCOc1ccc(N2C(=O)C3ON(c4ccccc4)C(c4ccc(O)c(OC)c4)C3C2=O)cc1` (stereo not drawn) the Potency was inconclusive: 3.55 µM [inhibitor, full curve, poor fit].
With `Cc1cc2cc(CCNC(=O)C(=O)c3c[nH]c4ccccc34)c(=O)[nH]c2cc1C` the Potency was inconclusive: 22.4 µM [inhibitor, partial curve].
In the case of `O=c1[nH]c(SCCOc2ccccc2)nc2ccccc12`, the Potency is reported as inconclusive: 3.98 µM [inhibitor, full curve, poor fit].
In the case of `O=C(CSc1n[nH]c(=O)n1C1CC1)Nc1cc(Cl)ccc1Oc1ccccc1`, the Potency is reported as “inactive”.
With `CSC1=Nc2sc3c(c2C2=NCCN12)CCCC3` the Potency was inconclusive: 39.8 µM [inhibitor, partial curve].
`COc1cccc(N2CCN(C(=O)c3ccc4c(=O)n(CCc5ccccc5)c(=O)[nH]c4c3)CC2)c1` was tested, and the Potency was inconclusive: 17.8 µM [inhibitor, partial curve].

From PubChem BioAssay AID485281 (National Center for Advancing Translational Sciences (NCATS), 2010)
Further: nearly all actives have a fitted effect of over 20% in size.
Potency means the concentration at half of the fitted maximal effect; tags describe the fitted curve by direction and shape.
